Results taken from PubChem BioAssay AID686971 (National Center for Advancing Translational Sciences (NCATS), 2013).
Screen size: about 360,000 compounds; about 7,500 (2.1%) were called active. Inconclusive results, whose numbers are uncertain, are shown with a selection of clear calls. Calls come from the whole dose curve; as a rule, active = well fitted cell-killing curve with a large enough effect; inconclusive = small, poorly fitted or top-dose-only effect, or effect the other way, or another doubt; inactive = no such curve, though single readings can be large or run the other way. No potency is given beside an inconclusive call; the fits are too rough.

Test: qHTS for induction of synthetic lethality in tumor cells producing 2HG: qHTS for the HT-1080-IDH1KD cell line;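 for activity, negative = toxicity: 0% = DMSO wells and -100% = cell-free medium wells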
Details: HT-1080 IDH1 knockdown viability, ATP luminescence, 48 h; activity, negative = toxicity: at 46.1 µM (top of the series) unless noted
Outline: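 CellTiter-Glo luminescence after 48 h compound exposure at 37 degrees C of IDH1-knockdown HT-1080 cells in 5% FBS RPMI. %Activity scaled between DMSO wells and cell-free media wells, with curves fitted and assigned curve classes.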
Potency is the fitted concentration of half-maximal effect; tags give direction and shape of the fitted curve.

| Structure (SMILES) | activity, negative = toxicity | Potency |
| --- | --- | --- |
| Cc1ccc(S(=O)(=O)N2CCC[C@H]2C(=O)OCc2nc3ccccc3s2)cc1 | inactive: 3.53% | – |
| CC1CCC2C(C1)c1sc(=O)[nH]c1SC2(C)C (centres undefined) | – | inconclusive [cytotoxic, single point] |
| COc1ccc(N(CC(=O)NC2CCCCC2)C(=O)CNC(=O)c2ccco2)c(OC)c1 | – | inconclusive [rising, partial curve] |
| C=CCN(C(=O)CN1CCCCC1)c1nc(-c2ccccc2)cs1 | – | inconclusive [cytotoxic, single point] |
| Cn1c(SSc2ccc(-c3cccnc3)n2C)ccc1-c1cccnc1 | – | active: 11.6 µM |
| COC(=O)[C@@]12C[C@@H](CC(=O)N3CCOCC3)C(=O)N(Cc3cccc4ccccc34)C1=CCC(C)(C)C2 | inactive: -3.73% | – |
| O=C(NC1CCCC1)C1C(c2ccc(C(F)(F)F)cc2)=Nc2ccccc2N1C(=O)c1ccco1 (centres undefined) | – | inconclusive [cytotoxic, single point] |
| CC(O)/C=C/c1cccc[n+]1C (centres undefined) | – | inconclusive [rising, single point] |
| CCOC(=O)CN[C@H]1CCC2C3CC=C4C[C@@H](O)CC[C@]4(C)C3CC[C@@]21C (some centres undefined) | inactive: 12.3% | – |
| CC(NC(=O)COc1ccc(/C=N/NC(=O)C(=O)Nc2ccccc2Br)cc1)c1ccccc1 (centres undefined) | – | inconclusive [cytotoxic, single point] |
| CCc1nc(SCC(=O)N2c3ccccc3CC2C)c2c(C)c(C)sc2n1 (centres undefined) | – | inconclusive [cytotoxic, partial curve, poor fit] |
| O=C1/C(=C/c2ccccc2)CCc2ccc(Cl)nc21 | – | active: 18.4 µM |
| CCN1CN(Cc2ccco2)CNC1=S | inactive: 12.2% | – |
| O=S1(=O)CC(N2CCN(c3ccccn3)CC2)CN1Cc1ccc(F)cc1 (centres undefined) | inactive: 12.9% | – |
| COc1ccc(C2c3c(-c4ccccc4O)n[nH]c3C(=O)N2Cc2ccco2)cc1 (centres undefined) | – | inconclusive [cytotoxic, single point] |
| NC(=O)c1ccccc1NC(=O)/C=C/c1ccc(Cl)cc1 | – | inconclusive [cytotoxic, single point] |
| CSc1nc(NC(C)(C)C)nc(Oc2ccc(=O)n(C)n2)n1 | inactive: 10% | – |
| Cc1ccc(NS(=O)(=O)c2ccc(OCC(=O)Nc3cccc([N+](=O)[O-])c3)c(C)c2)cc1 | – | active: 12.6 µM |
| NC(=O)CS(=O)(=O)c1nc2ccccc2n1CC(=O)N1CCCCC1 | – | inconclusive [cytotoxic, single point] |
| Cn1c(Nc2cccc(Cl)c2)nc2ccccc21 | – | inconclusive [cytotoxic, single point] |
| CN(CCc1ccccc1)C(=O)c1ccc(NC(=O)Cc2ccc(NC(=O)C3CCN(C(=O)C4CCCC4)CC3)cc2)cc1 | – | inconclusive [cytotoxic, partial curve] |
| O=C(/C=C/c1ccc2c(c1)OCO2)Nc1nc2ccccc2s1 | – | inconclusive [cytotoxic, partial curve, poor fit] |

| Structure (SMILES) | activity, negative = toxicity | Potency |
| --- | --- | --- |
| COc1ccc(CN(C)C(=O)c2cc(-c3ccc(C)cc3C)nc3ccccc23)c(OC)c1OC | – | inconclusive [cytotoxic, single point] |
| Cc1ccc(N2C(=O)c3cccc4c([N+](=O)[O-])ccc(c34)C2=O)c2cccnc12 | inconclusive: -17.3% [cytotoxic] | – |
| c1ccc(-c2cc3c(N4CCN(c5ncccn5)CC4)ncnc3s2)cc1 | inactive: 8.71% | – |
| Fc1ccc(NC(=S)NN=C2CCCCCC2)cc1 | – | active: 10 µM |
| O=C(N/N=C/c1cccc(NC(=O)c2ccc(Cl)cc2)c1)c1cccc(O)c1 | – | inconclusive [cytotoxic, single point] |
| CCCCCn1c(N2CCC(Cc3ccccc3)CC2)nc2c1c(=O)[nH]c(=O)n2C | – | inconclusive [cytotoxic, single point] |
| COc1ccc(C(=O)NCCc2ccc(Cl)cc2)cc1S(=O)(=O)N1CCCCC1C (centres undefined) | – | inconclusive [cytotoxic, single point] |
| Cc1nnc(SC(C)C(=O)NC2CCCc3ccccc32)n1-c1ccccc1 (centres undefined) | inactive: 7.72% | – |
| CCCOc1ccc(C(=O)Nc2ccc(N(C)C)cc2)cc1 | – | inconclusive [cytotoxic, single point] |
| CCN1CCN(C2CCCCC2NS(=O)(=O)c2ccccc2)CC1 (centres undefined) | inactive: -2.72% | – |
| O=C(Nc1ccc(F)cc1)N1CCCN(c2ccc(C(F)(F)F)cn2)CC1 | inconclusive: -30.3% [cytotoxic] | – |
| COc1ccc(-c2cc(C(F)(F)F)n3nc(C(=O)NCc4ccco4)cc3n2)cc1OC | inconclusive: -31% [cytotoxic] | – |
| N#C/C(=C\c1c(F)cccc1Cl)c1nn(-c2ccccc2)c(-n2cccc2)c1C#N | – | inconclusive [cytotoxic, partial curve, poor fit] |
| CCCCN1CCc2c1nc1ccc(Br)cc1c2N | – | inconclusive [cytotoxic, single point] |
| CC(C)CC(=O)NC(=S)Nc1nc(-c2cccc3ccccc23)cs1 | – | inconclusive [cytotoxic, single point] |
| Cc1ccc(C)c(S(=O)(=O)N2CCCCC2CCNC(=O)C(=O)NCc2ccco2)c1 (centres undefined) | – | inconclusive [cytotoxic, single point] |
| CCC(C)n1ncn(-c2ccc(N3CCN(c4ccc(O)cc4)CC3)cc2)c1=O (centres undefined) | – | inconclusive [cytotoxic, full curve] |
| COc1ccc(/C=C2\C(=O)c3ccccc3OC2c2ccccc2)cc1 (centres undefined) | – | inconclusive [cytotoxic, single point] |
| Cc1cccc(C)c1N(CC(=O)N1CCOCC1)S(C)(=O)=O | – | inconclusive [cytotoxic, single point] |
| COc1ccc(CCNC(=O)c2cc3ccc(Cl)cc3nc2N)cc1 | inconclusive: -22.6% [cytotoxic] | – |
| Cc1ccc(C(=O)CCC(=O)NCc2ccc(Cl)cc2)cc1 | inactive: 14.4% | – |
| Cc1ccc(S(=O)(=O)NC(=O)C2(C)CCN2C(=O)Cc2cccs2)nc1 (centres undefined) | inactive: 7.26% | – |
